± gives the standard deviation of the averaged measurements. Laboratory Escherichia coli strains with one amino-acid change in an essential protein, pooled on minimal glucose agar with carbenicillin or gentamicin at twice the control MIC (plus kanamycin and chloramphenicol for the plasmids), 48 h. Fold change of barcode share against drug-free plates; higher = less susceptible. Active = above 20 in both replicates (the paper's putatively resistant). '<' = one read or none on drug, '>' = one read or none on a drug-free plate. Shares are relative, so most strains fall below 1 when a few take over. Listed are strains with at least 15 reads on both drug-free plates, and hits; most hits rest on fewer reference reads. Replicate rank correlation about 0.5. Edits are read from barcodes. Bounds are passed on as bounds.

This data set has as its target Escherichia coli (laboratory strain). Description: barcode share on antibiotic plates over drug-free plates; higher = less susceptible. The procedure: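 A pool of E. coli strains, each edited to carry one amino-acid change in an essential protein, was grown for 48 h on minimal glucose agar with or without antibiotic; strain barcodes were sequenced; mean of two replicates.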

The mark [1] stands for this setting: antibiotic: carbenicillin, 2× MIC (3.1 µg/mL).
Setting [2] is: antibiotic: gentamicin, 2× MIC (MIC 0.45 µg/mL).

B1: lolB I160A (protein)
chain: MPLPDFRLIRLLPLAALVLTACSVTTPKGPGKSPDSPQWRQHQQDVRNLNQYQTRGAFAYISDQQKVYARFFWQQTGQDRYRLLLTNPLGSTELELNAQPGNVQLVDNKGQRYTADDAEEMIGKLTGMPIPLNSLRQWILGLPGDATDYKLDDQYRLSEATYSQNGKNWKVVYGGYDTKTQPAMPANMELTDGGQRIKLKMDNWIVK
Regarding B1, the “fold change of barcode share” value under setting [1] was determined as 0.0911 ± 0.088.

B2: lolC M63A (protein)
chain: MYQPVALFIGLRYMRGRAADRFGRFVSWLSTIGITLGVMALVTVLSVMNGFERELQNNILGLAPQAILSSEHGSLNPQQLPETAVKLDGVNRVAPITTGDVVLQSARSVAVGVMLGIDPAQKDPLTPYLVNVKQTDLEPGKYNVILGEQLASQLGVNRGDQIRVMVPSASQFTPMGRIPSQRLFNVIGTFAANSEVDGYEMLVNIEDASRLMRYPAGNITGWRLWLDEPLKVDSLSQQKLPEGSKWQDWRDRKGELFQAVRMEKNMMGLLLSLIVAVAAFNIITSLGLMVMEKQGEVAILQTQGLTPRQIMMVFMVQGASAGIIGAILGAALGALLASQLNNLMPIIGVLLDGAALPVAIEPLQVIVIALVAMAIALLSTLYPSWRAAATQPAEALRYE
Take B2: the “fold change of barcode share” value reads like this: under setting [1], 1.02 ± 0.97; under setting [2], 0.0129 ± 0.0084.

B3: lolC M165Q (protein)
chain: MYQPVALFIGLRYMRGRAADRFGRFVSWLSTIGITLGVMALVTVLSVMNGFERELQNNILGLMPQAILSSEHGSLNPQQLPETAVKLDGVNRVAPITTGDVVLQSARSVAVGVMLGIDPAQKDPLTPYLVNVKQTDLEPGKYNVILGEQLASQLGVNRGDQIRVQVPSASQFTPMGRIPSQRLFNVIGTFAANSEVDGYEMLVNIEDASRLMRYPAGNITGWRLWLDEPLKVDSLSQQKLPEGSKWQDWRDRKGELFQAVRMEKNMMGLLLSLIVAVAAFNIITSLGLMVMEKQGEVAILQTQGLTPRQIMMVFMVQGASAGIIGAILGAALGALLASQLNNLMPIIGVLLDGAALPVAIEPLQVIVIALVAMAIALLSTLYPSWRAAATQPAEALRYE
For B3, the “fold change of barcode share” value runs as follows: under setting [1], 0.417 ± 0.12; under setting [2], below 0.00607.

B4: lolC F184Q (protein)
chain: MYQPVALFIGLRYMRGRAADRFGRFVSWLSTIGITLGVMALVTVLSVMNGFERELQNNILGLMPQAILSSEHGSLNPQQLPETAVKLDGVNRVAPITTGDVVLQSARSVAVGVMLGIDPAQKDPLTPYLVNVKQTDLEPGKYNVILGEQLASQLGVNRGDQIRVMVPSASQFTPMGRIPSQRLQNVIGTFAANSEVDGYEMLVNIEDASRLMRYPAGNITGWRLWLDEPLKVDSLSQQKLPEGSKWQDWRDRKGELFQAVRMEKNMMGLLLSLIVAVAAFNIITSLGLMVMEKQGEVAILQTQGLTPRQIMMVFMVQGASAGIIGAILGAALGALLASQLNNLMPIIGVLLDGAALPVAIEPLQVIVIALVAMAIALLSTLYPSWRAAATQPAEALRYE
As for B4, the “fold change of barcode share” value is, setting by setting: under setting [1], 0.376 ± 0.24; under setting [2], below 0.00911.

B5: lolC M63P (protein)
chain: MYQPVALFIGLRYMRGRAADRFGRFVSWLSTIGITLGVMALVTVLSVMNGFERELQNNILGLPPQAILSSEHGSLNPQQLPETAVKLDGVNRVAPITTGDVVLQSARSVAVGVMLGIDPAQKDPLTPYLVNVKQTDLEPGKYNVILGEQLASQLGVNRGDQIRVMVPSASQFTPMGRIPSQRLFNVIGTFAANSEVDGYEMLVNIEDASRLMRYPAGNITGWRLWLDEPLKVDSLSQQKLPEGSKWQDWRDRKGELFQAVRMEKNMMGLLLSLIVAVAAFNIITSLGLMVMEKQGEVAILQTQGLTPRQIMMVFMVQGASAGIIGAILGAALGALLASQLNNLMPIIGVLLDGAALPVAIEPLQVIVIALVAMAIALLSTLYPSWRAAATQPAEALRYE
Consider B5, for which the “fold change of barcode share” value is, setting by setting: under setting [1], 0.0833 ± 0.036; under setting [2], 0.0105 ± 0.0058.

B6: lolC M165W (protein)
chain: MYQPVALFIGLRYMRGRAADRFGRFVSWLSTIGITLGVMALVTVLSVMNGFERELQNNILGLMPQAILSSEHGSLNPQQLPETAVKLDGVNRVAPITTGDVVLQSARSVAVGVMLGIDPAQKDPLTPYLVNVKQTDLEPGKYNVILGEQLASQLGVNRGDQIRVWVPSASQFTPMGRIPSQRLFNVIGTFAANSEVDGYEMLVNIEDASRLMRYPAGNITGWRLWLDEPLKVDSLSQQKLPEGSKWQDWRDRKGELFQAVRMEKNMMGLLLSLIVAVAAFNIITSLGLMVMEKQGEVAILQTQGLTPRQIMMVFMVQGASAGIIGAILGAALGALLASQLNNLMPIIGVLLDGAALPVAIEPLQVIVIALVAMAIALLSTLYPSWRAAATQPAEALRYE
For B6, the “fold change of barcode share” value by setting is: under setting [1], 0.305 ± 0.064; under setting [2], below 0.00992.

B7: lolC F184A (protein)
chain: MYQPVALFIGLRYMRGRAADRFGRFVSWLSTIGITLGVMALVTVLSVMNGFERELQNNILGLMPQAILSSEHGSLNPQQLPETAVKLDGVNRVAPITTGDVVLQSARSVAVGVMLGIDPAQKDPLTPYLVNVKQTDLEPGKYNVILGEQLASQLGVNRGDQIRVMVPSASQFTPMGRIPSQRLANVIGTFAANSEVDGYEMLVNIEDASRLMRYPAGNITGWRLWLDEPLKVDSLSQQKLPEGSKWQDWRDRKGELFQAVRMEKNMMGLLLSLIVAVAAFNIITSLGLMVMEKQGEVAILQTQGLTPRQIMMVFMVQGASAGIIGAILGAALGALLASQLNNLMPIIGVLLDGAALPVAIEPLQVIVIALVAMAIALLSTLYPSWRAAATQPAEALRYE
B7: the “fold change of barcode share” value under setting [1] turned out to be 0.273 ± 0.072 and the “fold change of barcode share” value under setting [2] was below 0.00552.

B8: lolC M63D (protein)
chain: MYQPVALFIGLRYMRGRAADRFGRFVSWLSTIGITLGVMALVTVLSVMNGFERELQNNILGLDPQAILSSEHGSLNPQQLPETAVKLDGVNRVAPITTGDVVLQSARSVAVGVMLGIDPAQKDPLTPYLVNVKQTDLEPGKYNVILGEQLASQLGVNRGDQIRVMVPSASQFTPMGRIPSQRLFNVIGTFAANSEVDGYEMLVNIEDASRLMRYPAGNITGWRLWLDEPLKVDSLSQQKLPEGSKWQDWRDRKGELFQAVRMEKNMMGLLLSLIVAVAAFNIITSLGLMVMEKQGEVAILQTQGLTPRQIMMVFMVQGASAGIIGAILGAALGALLASQLNNLMPIIGVLLDGAALPVAIEPLQVIVIALVAMAIALLSTLYPSWRAAATQPAEALRYE
In the case of B8, the “fold change of barcode share” value is 0.882 ± 0.45 under setting [1] and 2.2 ± 3 under setting [2].

B9: lolC F184W (protein)
chain: MYQPVALFIGLRYMRGRAADRFGRFVSWLSTIGITLGVMALVTVLSVMNGFERELQNNILGLMPQAILSSEHGSLNPQQLPETAVKLDGVNRVAPITTGDVVLQSARSVAVGVMLGIDPAQKDPLTPYLVNVKQTDLEPGKYNVILGEQLASQLGVNRGDQIRVMVPSASQFTPMGRIPSQRLWNVIGTFAANSEVDGYEMLVNIEDASRLMRYPAGNITGWRLWLDEPLKVDSLSQQKLPEGSKWQDWRDRKGELFQAVRMEKNMMGLLLSLIVAVAAFNIITSLGLMVMEKQGEVAILQTQGLTPRQIMMVFMVQGASAGIIGAILGAALGALLASQLNNLMPIIGVLLDGAALPVAIEPLQVIVIALVAMAIALLSTLYPSWRAAATQPAEALRYE
Turning to B9, the “fold change of barcode share” value reads like this: under setting [1], 0.432 ± 0.26; under setting [2], 0.0104 ± 0.0051.

B10: lolC M165A (protein)
chain: MYQPVALFIGLRYMRGRAADRFGRFVSWLSTIGITLGVMALVTVLSVMNGFERELQNNILGLMPQAILSSEHGSLNPQQLPETAVKLDGVNRVAPITTGDVVLQSARSVAVGVMLGIDPAQKDPLTPYLVNVKQTDLEPGKYNVILGEQLASQLGVNRGDQIRVAVPSASQFTPMGRIPSQRLFNVIGTFAANSEVDGYEMLVNIEDASRLMRYPAGNITGWRLWLDEPLKVDSLSQQKLPEGSKWQDWRDRKGELFQAVRMEKNMMGLLLSLIVAVAAFNIITSLGLMVMEKQGEVAILQTQGLTPRQIMMVFMVQGASAGIIGAILGAALGALLASQLNNLMPIIGVLLDGAALPVAIEPLQVIVIALVAMAIALLSTLYPSWRAAATQPAEALRYE
B10: the “fold change of barcode share” value is 0.231 ± 0.066 under setting [1] and below 0.00954 under setting [2].

B11: lolC M63W (protein)
chain: MYQPVALFIGLRYMRGRAADRFGRFVSWLSTIGITLGVMALVTVLSVMNGFERELQNNILGLWPQAILSSEHGSLNPQQLPETAVKLDGVNRVAPITTGDVVLQSARSVAVGVMLGIDPAQKDPLTPYLVNVKQTDLEPGKYNVILGEQLASQLGVNRGDQIRVMVPSASQFTPMGRIPSQRLFNVIGTFAANSEVDGYEMLVNIEDASRLMRYPAGNITGWRLWLDEPLKVDSLSQQKLPEGSKWQDWRDRKGELFQAVRMEKNMMGLLLSLIVAVAAFNIITSLGLMVMEKQGEVAILQTQGLTPRQIMMVFMVQGASAGIIGAILGAALGALLASQLNNLMPIIGVLLDGAALPVAIEPLQVIVIALVAMAIALLSTLYPSWRAAATQPAEALRYE
As to B11, the “fold change of barcode share” value is 2.15 ± 2.6 under setting [1] and below 0.016 under setting [2].

B12: lolC M165P (protein)
chain: MYQPVALFIGLRYMRGRAADRFGRFVSWLSTIGITLGVMALVTVLSVMNGFERELQNNILGLMPQAILSSEHGSLNPQQLPETAVKLDGVNRVAPITTGDVVLQSARSVAVGVMLGIDPAQKDPLTPYLVNVKQTDLEPGKYNVILGEQLASQLGVNRGDQIRVPVPSASQFTPMGRIPSQRLFNVIGTFAANSEVDGYEMLVNIEDASRLMRYPAGNITGWRLWLDEPLKVDSLSQQKLPEGSKWQDWRDRKGELFQAVRMEKNMMGLLLSLIVAVAAFNIITSLGLMVMEKQGEVAILQTQGLTPRQIMMVFMVQGASAGIIGAILGAALGALLASQLNNLMPIIGVLLDGAALPVAIEPLQVIVIALVAMAIALLSTLYPSWRAAATQPAEALRYE
B12: the “fold change of barcode share” value was 0.324 ± 0.15 under setting [1] and below 0.0192 under setting [2].

The record behind these values is the supplement of paper PMC11876631.
